Laboratory results as given in PubChem BioAssay AID504339 (National Center for Advancing Translational Sciences (NCATS), 2011).
About 17,000 (4.4%) of roughly 390,000 compounds were called active. The inconclusive results got no clear call from the source; some entries with a clear call stand among them for comparison. Calls come from the whole dose curve; as a rule, active = well fitted inhibition curve with a large enough effect; inconclusive = small, poorly fitted or top-dose-only effect; inactive = no such curve, though single readings can be large or run the other way. A potency beside an inconclusive call is a rough fit, not a confirmed value.

molecular target: Lysine-specific demethylase 4A (Homo sapiens) (UniProt O75164); assay: qHTS Assay for Inhibitors of JMJD2A-Tudor Domain; conditions: AlphaScreen JMJD2A-Tudor / H3K4me3 peptide binding; activity change, negative = inhibition: at 114 µM (top of the series); note: nearly all actives have a fitted effect of over 50% in size
% is set by controls: 0 for no effect and ±100 for the full control effect; potency is the fitted concentration of half-maximal effect; tags give direction and shape of the fitted curve.

Chain of UniProt O75164 (O75164 whole entry, looked up, the tested form may be a part): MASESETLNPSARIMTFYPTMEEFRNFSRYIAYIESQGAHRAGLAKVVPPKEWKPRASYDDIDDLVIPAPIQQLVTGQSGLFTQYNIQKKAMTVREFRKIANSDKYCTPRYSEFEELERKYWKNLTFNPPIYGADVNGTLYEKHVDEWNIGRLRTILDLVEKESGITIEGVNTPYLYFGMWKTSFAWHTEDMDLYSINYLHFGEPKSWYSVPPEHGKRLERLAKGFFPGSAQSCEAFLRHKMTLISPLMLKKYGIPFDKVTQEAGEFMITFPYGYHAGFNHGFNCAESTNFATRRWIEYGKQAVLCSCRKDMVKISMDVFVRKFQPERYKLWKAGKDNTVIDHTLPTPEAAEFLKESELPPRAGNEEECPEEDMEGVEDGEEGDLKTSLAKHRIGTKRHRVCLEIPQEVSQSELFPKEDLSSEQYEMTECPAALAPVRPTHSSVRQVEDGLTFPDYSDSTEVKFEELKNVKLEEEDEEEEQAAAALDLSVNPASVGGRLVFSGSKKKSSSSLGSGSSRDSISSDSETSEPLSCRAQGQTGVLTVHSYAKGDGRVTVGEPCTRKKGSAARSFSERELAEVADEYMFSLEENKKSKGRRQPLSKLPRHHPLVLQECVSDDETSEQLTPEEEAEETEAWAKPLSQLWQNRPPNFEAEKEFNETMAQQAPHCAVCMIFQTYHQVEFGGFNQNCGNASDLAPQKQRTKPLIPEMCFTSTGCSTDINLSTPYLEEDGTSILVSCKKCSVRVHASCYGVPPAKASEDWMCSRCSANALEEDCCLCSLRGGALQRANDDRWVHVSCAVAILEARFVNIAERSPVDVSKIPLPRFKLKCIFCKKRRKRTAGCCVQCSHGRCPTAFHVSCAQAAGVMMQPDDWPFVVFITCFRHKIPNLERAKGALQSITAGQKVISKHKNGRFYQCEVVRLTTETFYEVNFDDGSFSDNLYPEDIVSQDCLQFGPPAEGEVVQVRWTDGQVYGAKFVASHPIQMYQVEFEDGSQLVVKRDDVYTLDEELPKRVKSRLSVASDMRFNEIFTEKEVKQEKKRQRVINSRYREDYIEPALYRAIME

Potency, inconclusive:
c1ccc(-c2c[n+]3c(n2-c2ccccc2)SCC3)cc1 3.55 µM [inhibitor, single point]
COc1c(OC(C)=O)ccc(/C=C/c2ccc3ccccc3n2)c1[N+](=O)[O-] 35.5 µM [inhibitor, partial curve]
O=C(CN1CCCCC1)Nc1c2c(nc3ccccc13)N(c1ccccc1)CC2 0.708 µM [inhibitor, full curve, poor fit]
O=C(O)CCNC(=O)c1ccc(NC(=O)C(c2ccccc2)c2ccccc2)cc1 100 µM [inhibitor, single point]
Cc1ccccc1N1C(=O)CC1(C#N)c1ccc(OCc2ccccc2)cc1 (configuration not stated) 39.8 µM [inhibitor, single point]
CC(=O)C1=C(O)C(=O)N(c2ccc(C)cc2)C1c1ccc([N+](=O)[O-])cc1 (configuration not stated) 22.4 µM [inhibitor, full curve, poor fit]
O=C(Nc1cc(S(=O)(=O)N2CCCCC2)ccc1O)c1ccccc1NS(=O)(=O)c1ccc(F)cc1 70.8 µM [inhibitor, single point]
N#CC/C(N)=N/Nc1nc2ccccc2nc1Cc1ccccc1 39.8 µM [inhibitor, partial curve]
Cc1ccccc1-c1ncnn1-c1sc2c(c1C#N)CCCCC2 56.2 µM [inhibitor, partial curve, poor fit]
CC1CCN(S(=O)(=O)c2ccc3c(c2)CCN3C(=O)C2CCC2)CC1 20 µM [inhibitor, partial curve, poor fit]
COc1ccc(N2CCN(C(=O)c3ccc(CNc4c(N5CCOCC5)c(=O)c4=O)cc3)CC2)cc1 56.2 µM [inhibitor, partial curve]
CCOC(=O)c1c(NC(C)=O)sc2c(OCCN(CC)CC)c(Br)ccc12 56.2 µM [inhibitor, partial curve]
CC(C)S(=O)(=O)C1=NSC2=NC(=O)/C(=C\c3ccc(-c4cccc(C(=O)O)c4)o3)C(=N)N21 79.4 µM [inhibitor, partial curve]
CC(=O)/C(N=Nc1cc2c(c([N+](=O)[O-])c1C)C(C)(C)CC2(C)C)=C(\C)O 22.4 µM [inhibitor, full curve, poor fit]
COCCn1c(C)cc(/C=C2/SC(=O)N(C(C)C(=O)OC)C2=O)c1C (configuration not stated) 56.2 µM [inhibitor, partial curve]
O=C(CN1CCCC1)Nc1ccc(Br)cc1[N+](=O)[O-] 79.4 µM [inhibitor, partial curve]
COc1cccc2cc(C(C)N(CCCN3CCOCC3)C(=S)Nc3ccccc3C)oc12 (configuration not stated) 44.7 µM [inhibitor, partial curve]
COc1ccc(C(=O)N2CCCC(Nc3ccc(C(C)C)cc3)C2)c(OC)n1 (configuration not stated) 63.1 µM [inhibitor, partial curve, poor fit]
CCOC(=O)C1CCCN(C(=O)c2ccc3c(=O)n(CCOC)c(=S)[nH]c3c2)C1 (configuration not stated) 28.2 µM [inhibitor, full curve]
CC1CC(C)(C)CC2(C1)NC(=O)N(CC(=O)Nc1ccc(N3CCCCC3)cc1)C2=O (configuration not stated) 56.2 µM [inhibitor, partial curve]
CC(C)CC1Nc2ncnc(N3CCCCC3)c2N(Cc2ccc(Br)cc2)C1=O (configuration not stated) 63.1 µM [inhibitor, partial curve]
COC(=O)c1ccc(CN2CCCC(CCC(=O)NCc3ccc(C)o3)C2)cc1 (configuration not stated) 44.7 µM [inhibitor, partial curve]
COc1cccc2c1C(=O)c1c(O)c3c(c(O)c1C2=O)CC(O)(C(=O)CO)CC3OC1CC(N(C)C)C(O)C(C)O1 (configuration not stated) 79.4 µM [inhibitor, partial curve]
O=C(NC1CCCC1)c1c[nH]c2ccc(S(=O)(=O)Nc3cccc(C(F)(F)F)c3)cc2c1=O 44.7 µM [inhibitor, partial curve]
COC(=O)c1c(N2C(=O)CC(Sc3ccccc3C(=O)O)C2=O)sc(C)c1C (configuration not stated) 56.2 µM [inhibitor, partial curve]
O=C(O)C1CCCCC1C(=O)Nc1nc(-c2ccc(Cl)s2)cs1 (configuration not stated) 79.4 µM [inhibitor, partial curve]
O=c1[nH]c(Nc2ccc3c(c2)OCCO3)nnc1Cc1ccccc1 56.2 µM [inhibitor, partial curve]
CCCCC1=CC2=C(c3ccco3)C(=O)C(C)(OC(=O)c3ccc(OC)cc3)C(=O)C2=CN1CC1CC1 (configuration not stated) 44.7 µM [inhibitor, partial curve]
Cc1ccc(N(C)S(=O)(=O)c2ccc3[nH]cc(C(=O)NCCCN4CCOCC4)c(=O)c3c2)cc1C 79.4 µM [inhibitor, single point]
CCCCn1c(N)c(-c2nc3ccccc3o2)c2c([N+](=O)[O-])nn(C)c(=O)c21 10 µM [inhibitor, partial curve]
Cn1cc(C2CC(c3ccccc3)=NN2C(=O)c2ccccc2)c2ccccc21 (configuration not stated) 20 µM [inhibitor, full curve]
Cc1ccccc1Cn1c(O)c(N=NC(=S)Nc2ccccc2F)c2ccccc21 5.62 µM [inhibitor, partial curve]
Cc1ccc(C(=O)N/N=C\c2cccn2C)cn1 89.1 µM [inhibitor, single point]
CCOC(=O)CNc1c(-c2ccc(O)cc2)nc2ccc(Cl)cn12 56.2 µM [inhibitor, partial curve]
c1ccc(-c2nc(N3CCCCCC3)c3ccccc3n2)nc1 10 µM [inhibitor, partial curve, poor fit]
CCOc1ccc(/C=N/OCC(=O)NCc2ccco2)cc1 12.6 µM [inhibitor, partial curve, poor fit]
COc1ccc(C2=CN(Cc3ccccc3)C(c3ccccc3)CC2=O)cc1 (configuration not stated) 50.1 µM [inhibitor, partial curve]
O=c1cc(-c2ccccc2)[nH]n1-c1ccccc1 79.4 µM [inhibitor, partial curve]

Potency, active:
CCCC1=Nc2cc(C(=O)N3CCCC3)ccc2Sc2ccc(C)cc21 17.8 µM
COCc1cc(CN2CCCC2)c(O)c2ncccc12 8.91 µM
O=[N+]([O-])c1ccc(N2CCN(Cc3ccncc3)CC2)cc1 22.4 µM
CC(O)CNCCOc1cccc(Oc2ccccc2)c1 (configuration not stated) 3.55 µM
COc1ccc(Cl)cc1-c1n[nH]c(=S)n1C 6.31 µM
Cn1cnnc1SC/C(O)=C(\C#N)c1nc2ccccc2[nH]1 25.1 µM
COCCCNCC(=O)Nc1sc(C)c(C)c1C(=O)OC 28.2 µM
O=C(CN1CCSCC1)N/N=C/c1ccccc1F 3.16 µM

Potency, inactive:
CCS(=O)(=O)N1CCCC(C(=O)N2CCc3ccccc3C2)C1 (configuration not stated)
O=[N+]([O-])c1ccc(S(=O)(=O)NCC(c2cccnc2)N2CCc3ccccc3C2)cc1 (configuration not stated)
CCO[C@H]1OC(C(=O)NC2CC2)=C[C@@H](c2c[nH]c3ccccc23)[C@@H]1CCCO
O=C(Cc1csc(-c2cccc(Cl)c2)n1)Nc1cccc(S(=O)(=O)NC2=NCCC2)c1
C=CCSC1=C(C#N)C(c2ccccc2Cl)CC(=O)N1 (configuration not stated)
C=CCOC(=O)C1=C(C)OC(N)=C(C#N)C1c1c(C)nn(-c2ccccc2)c1Cl (configuration not stated)
COc1ccc(CNC[C@H]2O[C@@H](n3cnc4c(N)ncnc43)[C@H](O)[C@@H]2O)cc1OC
COc1ccccc1OCCNC(=O)c1cccc(S(=O)(=O)N2CC(C)OC(C)C2)c1 (configuration not stated)
O=C(Nc1ccccc1)Nc1ccccn1
O=C(C1CCC1)N1CCN(S(=O)(=O)c2ccc(Br)cc2Cl)CC1
O=c1c2sc(-c3ccccc3)cc2nc2n1CCC2
CC(=O)Nc1cccc(Nc2nc(-c3ccccc3F)nc3ccccc23)c1
Cc1cc(OCC(=O)NCC2(N3CCN(C)CC3)CCCCC2)cc(C)c1Cl
Cc1ccc(S(=O)(=O)N(C)C)cc1NC(=O)c1cc(=O)c2ccccc2o1
CC1CCCCN1C(=O)CSc1nnc2ccccn12 (configuration not stated)
Cc1ccc(C)c(OCc2cc(C(=O)N3CCN(c4ccccc4C)CC3C)no2)c1 (configuration not stated)
Clc1cccc(CNc2ncnc3c2nc2n3CCCC2)c1
CC1(C)CC(=O)C2=C(C1)N(c1cccnc1)C(N)=C(C#N)C2c1cccs1 (configuration not stated)
O=C(CCN1CCN(c2ccccc2F)CC1)Nc1ccccc1F
CCOC(=O)Cc1csc(NC(=O)c2ccncc2)n1
Cc1ccc(-n2c(Cc3cccs3)nnc2SCC(N)=O)cc1
COc1ccccc1CNC(=O)COC(=O)c1ccc(N2CCCC2=O)cc1
Cc1nn(-c2ccccc2)c(/N=C/c2ccc(O)cc2)c1-c1ccccc1
COc1ccc(-c2nc3scc(CCNS(=O)(=O)c4ccc(F)cc4F)n3n2)cc1OC
COc1ccc(C(=O)/C=C/c2ccc(N(C)C)cc2)c(OC)c1

Activity change, negative = inhibition, inconclusive:
CCC(C)c1ccccc1NC(=O)CN1CCN(C/C=C/c2ccccc2)CC1 (configuration not stated) -40.6% [inhibitor]
